# Hit rate of the full screen: of about 280,000 compounds, about 100 (0.036%) were called active. Inconclusive means that the source gave no clear call. Such entries were picked first, then a sample of the others. Calls come from the whole dose curve; as a rule, active = well fitted inhibition curve with a large enough effect in the signal ratio, with a control signal flat (not every such curve was filed as active); inconclusive = small, poorly fitted or top-dose-only effect, or effect the other way, or a change in a side signal; inactive = no such curve, though single readings can be large or run the other way; the % refers to the signal ratio. Potencies beside an inconclusive call are fits to weak or partial responses and may not hold up. A note “side channel” means that the fit belongs to a control or component signal, not to the main read-out.
# Target: Muscleblind-like protein 1 (Homo sapiens) (UniProt Q9NR56)
# UniProt Q9NR56, sequence (Q9NR56 whole entry, looked up): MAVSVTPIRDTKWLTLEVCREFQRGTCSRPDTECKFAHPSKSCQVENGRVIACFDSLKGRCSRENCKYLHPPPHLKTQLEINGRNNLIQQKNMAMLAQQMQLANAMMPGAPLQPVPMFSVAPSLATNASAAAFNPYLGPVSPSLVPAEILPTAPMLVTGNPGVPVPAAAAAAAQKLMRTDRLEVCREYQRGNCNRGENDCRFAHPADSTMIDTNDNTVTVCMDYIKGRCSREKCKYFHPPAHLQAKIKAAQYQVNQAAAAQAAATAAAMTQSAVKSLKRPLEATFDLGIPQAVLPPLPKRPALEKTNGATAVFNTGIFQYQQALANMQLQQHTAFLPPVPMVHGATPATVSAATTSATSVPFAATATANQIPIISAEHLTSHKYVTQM
# Test: qHTS Assay for Inhibitors of MBNL1-poly(CUG) RNA binding
# Conditions: TR-FRET MBNL1-His/biotin-(CUG)12 binding, 665/545 ratio; activity change, negative = inhibition: at 57.5 µM (top of the series)
# Method in brief: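 TR-FRET between His-tagged MBNL1 and biotin-(CUG)12 RNA, detected with Tb anti-His antibody (0.055 ng/ul) and streptavidin-XL665 (5 nM), 60 min at room temperature. Compounds titrated 92 nM to 58 uM; 665/545 nm ratio normalized to buffer and complex controls.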
# % is set by controls: 0 for no effect and ±100 for the full control effect; potency is the fitted concentration of half-maximal effect; tags give direction and shape of the fitted curve or compound fluorescence and quenching.
Structure (SMILES),Potency,"activity change, negative = inhibition"
NC(=O)c1ccc(NC(=O)c2cnc3ccccc3n2)cc1,"inconclusive: 11.2 µM [quencher, side channel, partial curve]",
O=C1CC(=O)c2c1cccc2[N+](=O)[O-],"inconclusive: 28.2 µM [quencher, side channel, single point]",
Cc1nc2ccccc2cc1C(=O)N/N=C/c1cccs1,"inconclusive: 0.141 µM [quencher, side channel, full curve, poor fit]",
CC(=O)Nc1cccc(-c2csc(Nc3cc(C)ccn3)n2)c1,inactive,
CCn1cc(C(=O)NCCCN2CCCC2)c(=O)c2cc(S(=O)(=O)N3CCc4ccccc4C3)ccc21,"inconclusive: 63.1 µM [inhibitor, single point]",
Cc1ccc2c(c1)C(O)(CC(=O)/C=C/C=C/c1ccccc1)C(=O)N2 (stereo not drawn),"inconclusive: 28.2 µM [quencher, side channel, partial curve]",
O=C(Nc1cccnc1Cl)c1cc(-c2ccc(O)cc2)on1,"inconclusive: 63.1 µM [inhibitor, partial curve]",
Cc1ccccc1NC(=O)Cn1nnc2sc3c(c2c1=O)CC(C)(C)OC3,"inconclusive: 14.1 µM [quencher, side channel, partial curve]",
O=C(CSC1=NS(=O)(=O)c2ccccc21)Nc1ccccc1,inactive,
C/C(=N\NC(=O)c1ccccc1C)c1cccc([N+](=O)[O-])c1,"inconclusive: 15.8 µM [quencher, partial curve]",
COC(=O)c1ccccc1NC(=O)CCc1ccccc1,inactive,
COc1cccc2cc(C(=O)NCCc3c[nH]c4ccccc34)c(=O)oc12,"inconclusive: 35.5 µM [quencher, side channel, partial curve]",
COc1ccccc1N1C(=O)C(Cl)=C(N2CCCC2)C1=O,"inconclusive: 25.1 µM [quencher, partial curve]",
COc1cc2c3nnc(-c4ccc(F)cc4)c-3cn(Cc3cccc(F)c3)c2cc1OC,inactive,
O=C(Cn1nnc2ccccc21)c1ccc([N+](=O)[O-])cc1,"inconclusive: 8.91 µM [quencher, side channel, partial curve]",
Cn1c(=O)c2c(nc(SCC(=O)NCc3ccc4c(c3)OCO4)n2Cc2ccc(F)cc2)n(C)c1=O,"inconclusive: 79.4 µM [inhibitor, single point]",
NS(=O)(=O)c1ccc(N=Nc2c(O)c(C(=O)O)cc3ccccc23)cc1,"inconclusive: 2.82 µM [quencher, side channel, partial curve]",
O=C(c1ccc(N2CCOCC2)c([N+](=O)[O-])c1)N1CCCCC1,"inconclusive: 14.1 µM [quencher, side channel, partial curve]",
O=[N+]([O-])c1sccc1CS(=O)(=O)c1ccccc1,"inconclusive: 11.2 µM [quencher, side channel, partial curve]",

Structure (SMILES),Potency,"activity change, negative = inhibition"
Cc1cc(F)ccc1NS(=O)(=O)c1cccc2nsnc12,"inconclusive: 25.1 µM [quencher, side channel, partial curve]",
Cc1cc(NC(=O)c2cc([N+](=O)[O-])cc([N+](=O)[O-])c2)no1,"inconclusive: 3.98 µM [quencher, side channel, partial curve]",
CCN(CCCNC(=O)c1cn(CC)c2ccc(S(=O)(=O)N(C)C)cc2c1=O)c1cccc(C)c1,inactive,
Cc1c(Cl)c([N+](=O)[O-])nn1CC(=O)Nc1c(C)n(C)n(-c2ccccc2)c1=O,"inconclusive: 22.4 µM [quencher, side channel, partial curve]",
COc1ccc(C(=O)OCC(=O)NCc2ccco2)cc1OC,inactive,
CN(C)C(=O)COC(=O)/C=C/c1cn(-c2ccccc2)nc1-c1cccs1,"inconclusive: 15.8 µM [quencher, side channel, partial curve]",
COC(=O)CCCC1=CC2=CC(=O)C(C)(OC(=O)c3cccs3)C(=O)C2=CN1c1ccc(OC)cc1 (stereo not drawn),"inconclusive: 14.1 µM [quencher, side channel, partial curve]",
O=C(O)c1ccc2c(c1)C(=O)N(NC(=O)c1ccccc1)C2=O,"inconclusive: 28.2 µM [quencher, side channel, single point]",
CCOC(=O)c1ccc2ncc(-c3ccccc3)nc2c1,"inconclusive: 3.55 µM [quencher, side channel, full curve]",
Cc1csc(C(=O)O)c1-n1cccc1,"inconclusive: 39.8 µM [quencher, side channel, single point]",
O=[N+]([O-])c1cccc(/C([O-])=C(/C(=S)Nc2ccccc2)[n+]2ccccc2)c1,,inconclusive: 21.3% [phenotype inactive]
O=c1c2ccccc2c(C=NCc2ccccn2)c(O)n1-c1ccccc1Cl,"inconclusive: 20 µM [quencher, side channel, partial curve]",
Cc1ccc2c(c1)-c1c(cnn1CC(=O)N(Cc1ccco1)C1CCCCC1)CO2,"inconclusive: 22.4 µM [quencher, side channel, partial curve]",
CN1C2C=C3C(C#N)=C(N)C(C#N)(C#N)[C@@H](c4cccc(F)c4)[C@@H]3C1CC2 (stereo partly drawn),"inconclusive: 31.6 µM [quencher, side channel, partial curve]",
COc1ccc(N/C=C\C(=O)c2ccc(C)cc2)cc1OC,"inconclusive: 8.91 µM [quencher, side channel, partial curve]",
O=C(Nc1ccc(O)c(C(=O)O)c1)c1ccc2c(c1)C(=O)N(CC1CCCO1)C2=O (stereo not drawn),"inconclusive: 12.6 µM [quencher, partial curve]",
COc1ccc(CN2CCN(c3cc(C)nc4c5c(C)cc(C)nc5nn34)CC2)cc1F,inactive,
O=[N+]([O-])c1cc(/C=N\O)ccc1Oc1ccc(F)cc1,"inconclusive: 25.1 µM [quencher, side channel, partial curve]",
O=C(O)Cn1cc(/C=C/[N+](=O)[O-])c2ccccc21,inactive,

# — PubChem BioAssay AID2675 (National Center for Advancing Translational Sciences (NCATS), 2010)
